This passage reports binding results from article PMC9959916.

Amino acid sequences for entries named in this document (tags omitted).
UniProt Q8MKI8: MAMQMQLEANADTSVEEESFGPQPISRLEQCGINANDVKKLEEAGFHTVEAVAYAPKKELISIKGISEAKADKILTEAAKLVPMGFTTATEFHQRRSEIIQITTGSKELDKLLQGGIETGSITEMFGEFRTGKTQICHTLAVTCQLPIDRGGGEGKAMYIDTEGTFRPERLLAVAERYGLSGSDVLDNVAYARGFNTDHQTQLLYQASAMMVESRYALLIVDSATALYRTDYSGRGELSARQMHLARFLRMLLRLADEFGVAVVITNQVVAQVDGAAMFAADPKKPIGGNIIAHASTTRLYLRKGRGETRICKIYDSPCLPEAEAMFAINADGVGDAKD

Changes are numbered by the printed parent chain. No constants are given. Whether binding was seen depends on the method and setting. Some entries that bind do so weakly or less than the wild type. Where a sequence is shown, tags or fusion partners need not be part of it.

Holding throughout (test): two-hybrid; mammalian two-hybrid in HeLa cells: pM (Gal4 DNA-binding domain)-BRCA2 peptide, pVP16-canine RAD51, pG5-Luc firefly luciferase reporter, normalised to Renilla (pRL-TK); read two days after transfection
A general note: In a reporter assay the amount or activity of a reporter protein is the signal.

Assay [1] deals with T1, Gal4 DNA-binding domain-fused cBRC1-HCR-BRC2 S1122A (canine (Canis lupus familiaris)) (UniProt Q8MKI9).
T1 sequence: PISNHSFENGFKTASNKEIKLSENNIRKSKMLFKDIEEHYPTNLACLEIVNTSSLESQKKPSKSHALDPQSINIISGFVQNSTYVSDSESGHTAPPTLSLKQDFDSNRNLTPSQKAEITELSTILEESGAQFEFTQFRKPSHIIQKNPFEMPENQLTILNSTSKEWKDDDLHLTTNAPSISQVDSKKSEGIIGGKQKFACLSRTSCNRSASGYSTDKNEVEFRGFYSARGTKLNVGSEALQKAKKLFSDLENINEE

Assay [2] addresses T2, Gal4 DNA-binding domain-fused cBRC1-HCR-BRC2 S1122E (canine (Canis lupus familiaris)) (UniProt Q8MKI9).
T2 sequence: T1 sequence with A130E

The target of assay [3] is T3, Gal4 DNA-binding domain-fused cBRC1-HCR-BRC2 S1105A (canine (Canis lupus familiaris)) (UniProt Q8MKI9).
T3 sequence: T1 sequence with S113A, A130S

In assay [4] the target is T4, Gal4 DNA-binding domain-fused cBRC1-HCR-BRC2 3E (S1105E, S1122E, T1127E) (canine (Canis lupus familiaris)) (UniProt Q8MKI9).
T4 sequence: T1 sequence with S113E, A130E, T135E

Assay [5] concerns the target T5, Gal4 DNA-binding domain-fused cBRC1-ΔHCR-BRC2 (canine BRCA2 993–1248 aa deleted with 1101–1133 aa) (canine (Canis lupus familiaris)) (UniProt Q8MKI9).
T5 sequence: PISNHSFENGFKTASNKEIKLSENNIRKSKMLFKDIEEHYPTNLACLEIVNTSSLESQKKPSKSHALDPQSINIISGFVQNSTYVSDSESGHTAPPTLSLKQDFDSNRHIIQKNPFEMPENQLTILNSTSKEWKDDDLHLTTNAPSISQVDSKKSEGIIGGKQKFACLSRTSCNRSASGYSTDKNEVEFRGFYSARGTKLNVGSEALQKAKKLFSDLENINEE

Assay [6] addresses T6, Gal4 DNA-binding domain-fused HCR (canine BRCA2 1101–1133 aa) (canine (Canis lupus familiaris)) (UniProt Q8MKI9).
T6 sequence: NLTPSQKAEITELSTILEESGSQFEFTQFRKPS

In assay [7] the target is T7, Gal4 DNA-binding domain-fused cBRC1-HCR-BRC2 (canine BRCA2 993–1248 aa) (canine (Canis lupus familiaris)) (UniProt Q8MKI9).
T7 sequence: T1 sequence with A130S

Take “VP16-fused canine RAD51 (from UniProt Q8MKI8 1-339)”: the binding entry in assay [1] is listed as “binds”; in assay [2], “binds”; in assay [3], “binds”; in assay [4] it was “binds”; in assay [5], “binds”; in assay [6] it was “no binding”. Further, in assay [7], the binding entry is given as “binds”.
